The other results are listed elsewhere or left out. Shown are side measurements of this screen, not its main read-out; they come without a call.
Tests used:
Test in all cases: Primary Screen for Target Class Profiling of Small Molecule Inhibitors of Methyltransferases
[1] = molecular target: Glycine N-methyltransferase (Homo sapiens) (UniProt Q14749); details: purified enzyme, MTase-Glo SAH luminescence; measured here: GNMT inhibition; at 40 µM; stronger effect = lower value
Method in brief: (§1)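 Each enzyme was reacted with SAM and its substrate, with compounds tested once at 40 uM; SAH formed was read by MTase-Glo luminescence.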

[2] = molecular target: Guanidinoacetate N-methyltransferase (Homo sapiens) (UniProt Q14353); details: purified enzyme, MTase-Glo SAH luminescence; measured here: GAMT inhibition; at 40 µM; stronger effect = lower value
Method in brief: as §1

[3] = molecular target: Histamine N-methyltransferase (Homo sapiens) (UniProt P50135); details: purified enzyme, MTase-Glo SAH luminescence; measured here: HNMT inhibition; at 40 µM; stronger effect = lower value
Method in brief: as §1

[4] = molecular target: Nicotinamide N-methyltransferase (Homo sapiens) (UniProt P40261); details: purified enzyme, MTase-Glo SAH luminescence; measured here: NNMT inhibition; at 40 µM; stronger effect = lower value
Method in brief: as §1

[5] = molecular target: Phenylethanolamine N-methyltransferase (Homo sapiens) (UniProt P11086); details: purified enzyme, MTase-Glo SAH luminescence; measured here: PNMT inhibition; at 40 µM; stronger effect = lower value
Method in brief: as §1
% is set by controls: 0 for no effect and ±100 for the full control effect.

SMILES	activity change, negative = inhibition [1]	activity change, negative = inhibition [2]	activity change, negative = inhibition [3]	activity change, negative = inhibition [4]	activity change, negative = inhibition [5]
O=C(/C=C/c1ccc(O)cc1)OC[C@@]1(O)C=C[C@@H]2C(C(=O)O)=CO[C@@H](O[C@@H]3O[C@H](CO)[C@@H](O)[C@H](O)[C@H]3O)[C@@H]21	-8.26%	-13.3%	3.79%	-24.4%	-0.99%
O=C(CCn1ccc2cc(S(=O)(=O)N3CCCCC3)ccc21)N1CCN(c2ccccc2F)CC1	3.98%	-2.89%	-0.157%	-3.93%	-3.64%
O=c1[nH]c2ccccc2n1Cc1ccccc1Cl	-13.7%	1.77%	-13.5%	-3.95%	4.13%
COc1cc(O)cc(C)c1C(=O)OC1C(CO)OC(OC2C(O)C(O)C(O)C(O)C2O)C(O)C1O (stereo not given)	2.12%	5.65%	-3.94%	-4.16%	7.23%
COC(=O)c1ncn2c1C(=O)N(c1cc(C)ccc1C)C(C)(C(=O)NCCCOC(C)C)C2 (stereo not given)	-2.11%	0.231%	1.77%	0.606%	0.136%
CCOc1ccc(N2C(=O)c3cc(-c4ccco4)nn3CC2(C)C(=O)NC2CCCCC2)cc1 (stereo not given)	-5.96%	-0.428%	0.591%	-2.87%	-1.15%
Cc1ccc(NC(=O)CSc2nnc3n(C)c(=O)c4ccc(C(=O)NC5CCCC5)cc4n23)c(C)c1	-2.63%	1.66%	-15.2%	-2.53%	11.6%
O=C(NCc1ccc2c(c1)OCO2)c1ccc2c(=O)nc3c(-c4ccccc4F)n[nH]n3c2c1	-14.8%	1.79%	-3.69%	-8.7%	-4.3%
CCCNC(=O)N1CCn2cccc2C1C(C)C (stereo not given)	8.85%	0%	0.905%	1.46%	3.04%
CCc1ccc(CNC(=O)CN2C(=O)NC3(CCOCC3)C2=O)cc1	0.827%	-0.811%	2.08%	-6.75%	0.527%
Cc1ccccc1CSc1nnc2n(Cc3ccccc3)c(=O)c3ccccc3n12	1.95%	0.186%	1.74%	-1.7%	1.4%
Cc1ccc(C)c(Cn2nc3n(C(C)C)c(=O)c4ccc(C(=O)NC5CCCCC5)cc4n3c2=O)c1	6.07%	0%	9.09%	6.78%	6.84%
Cn1c(=O)n(C)c2cc(S(=O)(=O)Nc3cccc(Br)c3)ccc21	-4.27%	1.9%	-3.43%	3.84%	-4.91%
CCc1ccccc1NC(=O)CSc1nnc2n(Cc3ccccc3)c(=O)c3ccccc3n12	-3.39%	-3%	7.16%	-11.5%	-4.12%
O=c1cc(-c2ccc(O)cc2)oc2cc(O)cc(O)c12	-30.1%	-5.59%	-17.5%	-17.5%	-10.3%
CC1(C(=O)NCc2ccc(F)cc2)Cn2cnc(C(=O)NCc3ccc(F)cc3)c2C(=O)N1C1CC1 (stereo not given)	2.95%	1.42%	11.9%	4.22%	9.24%
CC(C)CN[C@H]1CO[C@H]2[C@@H]1OC[C@@H]2Nc1nccc(-c2cccs2)n1	-23%	-7.52%	-6.11%	-11.6%	-2.72%
CC(C)CCn1c(=O)c2ccccc2n2c(SCC(=O)Nc3cc(F)ccc3F)nnc12	2.45%	2.07%	9.27%	-10.2%	4.61%
CCCn1c(=O)c2ccccc2n2c(SCC(=O)Nc3ccc(OC)cc3)nnc12	-0.625%	4.86%	8.14%	3.12%	3.23%
C=C[C@@H]1[C@H](O[C@@H]2O[C@H](CO)[C@@H](O)[C@H](O)[C@H]2O)OC=C(C(=O)O)[C@H]1CCOC(=O)/C=C/c1ccc(O)c(O)c1	1.16%	-6.26%	1.45%	-15.5%	1.72%

SMILES	activity change, negative = inhibition [1]	activity change, negative = inhibition [2]	activity change, negative = inhibition [3]	activity change, negative = inhibition [4]	activity change, negative = inhibition [5]
O=C(NCc1ccc(Cl)cc1)c1c[nH]c2ncccc12	-17.8%	-11.4%	-11%	-25.7%	-38.4%
CC(C)CC(=O)N1C(C(=O)NCC2CCCO2)COC12CCC(C)CC2 (stereo not given)	1.65%	-2.91%	1.68%	0.606%	-0.47%
COc1ccccc1CN1C(=O)c2nc3ccccc3n2CC1(C)C(=O)NC1CCC(C)CC1 (stereo not given)	-4.38%	0%	5.99%	-20.4%	-7.3%
CC(=O)NCc1nnc2n1C(C(=O)NC1CCCCCC1)CC2 (stereo not given)	-4.26%	-12.7%	-4.31%	-15.6%	-9.23%
COc1ccc(-c2cnc3n[nH]c(-c4ccccc4C)c3n2)cn1	-22%	-12.6%	-28%	-15.4%	-7.38%
COc1ccc2cc(C3CN(CCC(=O)NC(C)(C)C)CCO3)ccc2c1 (stereo not given)	-2.27%	-2.53%	2%	-2.18%	-0.574%
CC(C)Cn1c(=O)c2ccccc2n2c(CCC(=O)NCCCOC(C)C)nnc12	-6.63%	2.07%	7.72%	-1.5%	-1.83%
Cn1cncc1-c1nnc([C@H]2CCN(CC3CCCCC3)C2)o1	-3.22%	-2.93%	-6.97%	-10.9%	-9.72%
Cn1ccnc1C(=O)N1CCC(Cc2ccc(CCC(=O)N3CCCC3)cc2)CC1	-6%	-8.34%	-2.42%	-13.4%	-9.7%
C=CCn1c(=O)c2ccc(C(=O)NC(C)C)cc2n2c(=O)n(CC(=O)N(C)c3ccc(F)cc3)nc12	7.87%	1.61%	4.79%	3.65%	8.62%
Cc1ccc(Cn2c(=O)c3ccccc3n3c(=O)n(CC(=O)NCc4ccccc4)nc23)cc1	4.67%	0%	11.4%	7.15%	3.96%
O=C(C1CCCO1)N1CCN(c2nc(-c3cccnc3)nc3c2CNC3)CC1 (stereo not given)	-5.06%	-4.09%	-6.57%	-5.2%	-20.7%
Cc1cccc(S(=O)(=O)N2CCC[C@@H]2CCN2CCC(C)CC2)c1	-2.46%	0.997%	2.55%	-11.8%	-4.99%
CCCCNC(=O)c1ccc2c(=O)nc3c(-c4ccccc4F)n[nH]n3c2c1	-14.4%	4.79%	1.5%	1.73%	-3.13%
COc1cccc(NS(=O)(=O)c2ccc3c(c2)n(C)c(=O)n3C)c1	0.292%	4.68%	-0.243%	1.24%	-2.19%
Cc1ccc(Cn2c(=O)c3ccc(C(=O)NC(C)C)cc3n3c(=O)n(CC(=O)NC(C)(C)C)nc23)cc1	4.52%	0.473%	5.77%	0.839%	4.39%
CC(=O)N1CCN(NC(=O)c2ccc(F)cc2)CC1	6.58%	7.46%	13.2%	-7.26%	3.9%
COC(=O)CC1CC(c2ccc(O)cc2)=NO1 (stereo not given)	-5.51%	-18.5%	-8.53%	-27.4%	-13%
c1ccc(-c2nnn3c2nc(N2CCc4ccccc4C2)c2ccccc23)cc1	-19.8%	-25.2%	-25.9%	-19.1%	-28.8%

Source: PubChem BioAssay AID1745853 (National Center for Advancing Translational Sciences (NCATS), 2022)
